Reference: PMC9814530, “Rapid de novo discovery of peptidomimetic affinity reagents for human angiotensin converting enzyme 2” (Communications Chemistry, 2022)
Where a SMILES comes first, the peptide text is derived from it. [ ]: non-standard residue; d: D form. Phe(3,4-(OMe)2) = COc1ccc(C[C@H](N)C(=O)O)cc1OC; Phe(3,4-F2) = N[C@@H](Cc1ccc(F)c(F)c1)C(=O)O; Ala(4-thiazolyl) = N[C@@H](Cc1cscn1)C(=O)O; Phe(4-NH2) = Nc1ccc(C[C@H](N)C(=O)O)cc1; Met(O2) = CS(=O)(=O)CC[C@H](N)C(=O)O; Ala(cPr) = N[C@@H](CC1CC1)C(=O)O; Hyp = O=C(O)[C@@H]1C[C@@H](O)CN1; Cha = N[C@@H](CC1CCCCC1)C(=O)O; 4Amb = NCc1ccc(C(=O)O)cc1; β3hS = N[C@@H](CO)CC(=O)O; Orn = NCCC[C@H](N)C(=O)O; βAla = NCCC(=O)O

molecular target: ACE2 and SARS-CoV-2 RBD interaction (Homo sapiens, UniProt Q9BYF1); test: BLI binding competition of the SARS-CoV-2 RBD-ACE2 interaction; settings: ACE2 100 nM mixed with peptide at 5-fold or 50-fold excess (500 or 5000 nM)

Compound | inhibition of binding of ACE2 to immobilized RBD
CS(=O)(=O)CC[C@H](NC(=O)[C@H](CC1CCCCC1)NC(=O)[C@H](Cc1cscn1)NC(=O)C[C@H](CO)NC(=O)[C@H](CCCN)NC(=O)[C@H](CCC(N)=O)NC(=O)[C@H](CCCN)NC(=O)[C@H](Cc1ccc(F)c(F)c1)NC(=O)[C@H](Cc1cscn1)NC(=O)[C@@H](N)CC1CC1)C(=O)NCC(=O)N[C@@H](Cc1ccc(N)cc1)C(=O)N[C@@H](CCCCN)C(N)=O [ABP N1] (H-[Ala(cPr)][Ala(4-thiazolyl)][Phe(3,4-F2)][Orn]Q[Orn][β3hS][Ala(4-thiazolyl)][Cha][Met(O2)]G[Phe(4-NH2)]K-NH2) | does not interfere
COc1ccc(C[C@H](NC(=O)[C@H](Cc2ccc(F)c(F)c2)NC(=O)[C@@H]2C[C@@H](O)CN2C(=O)[C@H]2CCCN2C(=O)[C@H]2CCCN2C(=O)CNC(=O)[C@H](CC2CC2)NC(=O)[C@H](Cc2cscn2)NC(=O)[C@@H](N)CC2CC2)C(=O)N[C@@H](Cc2cscn2)C(=O)NCCC(=O)NCc2ccc(C(=O)N[C@@H](CCCCN)C(N)=O)cc2)cc1OC [ABP N4] (H-[Ala(cPr)][Ala(4-thiazolyl)][Ala(cPr)]G[dP][dP][Hyp][Phe(3,4-F2)][Phe(3,4-(OMe)2)][Ala(4-thiazolyl)][βAla][4Amb]K-NH2) | no direct inhibition
CS(=O)(=O)CC[C@H](NC(=O)[C@H](Cc1ccc(F)c(F)c1)NC(=O)[C@H](CCCN)NC(=O)[C@@H](N)CC1CC1)C(=O)N1C[C@H](O)C[C@H]1C(=O)N[C@@H](Cc1cscn1)C(=O)N1CCC[C@@H]1C(=O)N[C@@H](CCC(N)=O)C(=O)N[C@@H](Cc1ccc(F)c(F)c1)C(=O)N[C@@H](CC1CCCCC1)C(=O)N[C@@H](CC1CCCCC1)C(=O)NCCC(=O)N[C@@H](CCCCN)C(N)=O [ABP N6] (H-[Ala(cPr)][Orn][Phe(3,4-F2)][Met(O2)][Hyp][Ala(4-thiazolyl)][dP]Q[Phe(3,4-F2)][Cha][Cha][βAla]K-NH2) | no direct inhibition
